The text below walks through data of patent publication US10696615B2, “Prenylated hydroxystilbenes” (The University of Sydney, priority 2011, dated 2020).

In the test the test system is 14 bacterial strains (11 ATCC strains and 3 clinical isolates). In words: MIC screening, broth microdilution (CLSI). In kind it is cell-based. The note with it: for antibacterial activities: result in words. The text has this: C. […] C. […] 2.5. […] 2.6. […] C. […] 3. Results 3.1. MIC Summary Table

`COc1cc(/C=C/c2cc(O)cc(OCC=C(C)C)c2)ccc1O` [USYDS2, (E)-3-(3-methyl-2-butenyloxy)-4′,5-dihydroxy-3′-methoxystilbene]: the “rank of potency (MIC)” value was “USYDS1>USYDS2>ethanolic extract of propolis” and the antibacterial activities result is “moderate antibacterial activities”.
The corresponding values for `COc1cc(/C=C/c2cc(O)cc(OC)c2CC=C(C)C)ccc1O` [USYDS1, (E)-2-(3-methyl-2-buten-1-yl)-4′,5-dihydroxy-3,3′-dimethoxystilbene] are “USYDS1>USYDS2>ethanolic extract of propolis” and “moderate antibacterial activities”.
